Assay results: PubChem BioAssay AID2546 (National Center for Advancing Translational Sciences (NCATS), 2010)
Among all 310,000 compounds or so, about 11,000 (3.5%) were called active. This list was built around the results that the source calls inconclusive (neither active nor inactive); the mix of calls is not that of the screen. Calls follow the shape of the dose curve; as a rule, active = well fitted inhibition curve with a large enough effect; inconclusive = small, poorly fitted or top-dose-only effect, or effect the other way; inactive = flat fitted curve, though single readings scatter. No potency is given beside an inconclusive call; the fits are too rough.

assay: VP16 counterscreen qHTS for inhibitors of ROR gamma transcriptional activity; conditions: Drosophila S2 Gal4-VP16 UAS-luciferase, luminescence, 20 h; activity, negative = inhibition: at 53.6 µM (top of the series);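 also: Gal4-VP16 expression switched on by copper sulfate through the metallothionein promoter; nearly all actives have a fitted effect of over 50% in size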
% is scaled to controls: 0 for no effect and ±100 for the full control effect; potency is read from the fitted curve at half-maximal effect; tags tell the direction and shape of the fitted curve.

Row | SMILES | Potency | activity, negative = inhibition
1 | O=c1cc(C(F)(F)F)[nH]c2ccc(OC(F)(F)F)cc12 | inconclusive [inhibitor, single point] | 
2 | Cn1c(=O)c2c(nc(NCCCO)n2C/C=C/c2ccccc2)n(C)c1=O | inconclusive [inhibitor, single point] | 
3 | CCc1cc(=O)oc2cc3occ(-c4ccc(OC)c(F)c4)c3cc12 | active: 12.6 µM | 
4 | CNC(=S)N/N=C(\C)c1ccc(C)c(C)c1 | active: 5.01 µM | 
5 | O=C(NC1CCCCC1)C(c1ccc(F)cc1)N(Cc1ccco1)C(=O)CN1C(=O)c2ccccc2S1(=O)=O (stereo unspecified) | inconclusive [activator, single point] | 
6 | COc1ccc(-c2cc(C3CCN(c4ccc(C(C)=O)cc4[N+](=O)[O-])CC3)[nH]n2)cc1 | inconclusive [inhibitor, single point] | 
7 | c1ccc(N/N=C2\CCCc3ccccc32)nc1 | inconclusive [inhibitor, partial curve] | 
8 | Cc1nc([N+](=O)[O-])c(Sc2nc3ccccc3n2C)n1Cc1ccccc1 | inconclusive [inhibitor, single point] | 
9 | Cc1ccc(/C=N/NC(=O)CSc2nnc(-c3ccccc3)n2-c2ccc(Cl)cc2)o1 |  | inactive: -18.4%
10 | CN1/C(=C\C(=O)COC(=O)CNC(=O)c2ccc3ccccc3c2)C(C)(C)c2ccccc21 | inconclusive [inhibitor, single point] | 
11 | COC(=O)c1ccccc1NC(=O)Cn1nc2n(C)c3ccccc3n2c(=O)c1=O | inconclusive [activator, single point] | 
12 | Cc1cc(C)cc(N(C(=O)c2csnn2)C(C(=O)NC2CCCCC2)c2ccccn2)c1 (stereo unspecified) |  | inactive: -0.609%
13 | C[C@]12CC[C@@H]3c4ccc(O)cc4CC[C@H]3[C@@H]1CCC2OC(=O)CCC1CCCC1 (stereo partly specified) | inconclusive [inhibitor, single point] | 
14 | COc1ccc(C2C(C(=O)N3CCN(C)CC3)c3cc(OC)c(OC)cc3C(=O)N2C)cc1 (stereo unspecified) | inconclusive [inhibitor, full curve, poor fit] | 
15 | CCOc1ccc(/C=C/C(=O)c2cc(Br)ccc(=O)c2O)cc1 | active: 22.4 µM | 
16 | COc1ccc(C)cc1NS(=O)(=O)c1ccc(-c2cnc(C3CC3)o2)cc1 | active: 17.8 µM | 
17 | CC(C)(C)c1ccc(NC(=O)COC(=O)c2ccc(NS(=O)(=O)c3ccc(F)c(F)c3)cc2)cc1 | inconclusive [inhibitor, single point] | 
18 | COc1ccc(N(CC(=O)NCCc2ccccc2)C(=O)CCC(=O)Nc2nccs2)cc1 |  | inactive: 4.03%
19 | NC(=S)NNC(N)=S | inconclusive [inhibitor, single point] | 
20 | O=C(NCCc1ccccc1)C1CCC(CNc2nc(=S)[nH]c3ccccc23)CC1 (stereo unspecified) | inconclusive [activator, single point] | 
21 | O=C(CSCc1ccc(Cl)cc1)N1CCN(Cc2ccc3c(c2)OCO3)CC1 | inconclusive [inhibitor, single point] | 
22 | CCC/C=N/NC(=O)c1cc(Br)ccc1O | inconclusive [inhibitor, single point] | 
23 | CCn1c(C)nc2cc(C(=O)NNC(=S)Nc3ccc(OC)cc3)ccc21 | inconclusive [inhibitor, single point] | 

Row | SMILES | Potency | activity, negative = inhibition
24 | CCC1(c2ccccc2)NC(=O)NC1=O (stereo unspecified) |  | inactive: -14.2%
25 | COc1ccc(CCNC(=O)C2CCN(Cc3nc(-c4ccccc4C)oc3C)CC2)cc1OC | inconclusive [inhibitor, single point] | 
26 | COc1ccc(CNC(=S)Nc2ccc(-c3ccccc3)cc2)cc1 | active: 7.08 µM | 
27 | O=C(CCCn1nnnc1CN1CCOCC1)N1CCC(c2ccccc2Cl)C1 (stereo unspecified) |  | inactive: -5.21%
28 | COC1(C#CC2C=CC(OC(C)=O)C(COC(C)=O)O2)CCCCC1 (stereo unspecified) |  | inactive: 8.82% [at 10 µM]
29 | O=C1/C(=C\c2ccc(Br)o2)Cc2ccccc21 | inconclusive [activator, single point] | 
30 | Cc1cc(C)cc(-n2c(C)cc(/C=C3\C(=N)N4N=C(CC(C)C)SC4=NC3=O)c2C)c1 | inconclusive [inhibitor, single point] | 
31 | CCOC(=O)NC(=O)COC(=O)CCCc1nc2ccccc2s1 |  | inactive: -22.6%
32 | CCOc1ccccc1CN1C(=O)c2ccccc2C1C(=O)NC(C)CC (stereo unspecified) | inconclusive [inhibitor, single point] | 
33 | Cc1ccc(O)c(-c2cc(-c3ccccc3C)[nH]n2)c1 | active: 11.2 µM | 
34 | CCOC(=O)c1ccc(NC(=S)N2CCSC2c2ccc(OC)cc2)cc1 (stereo unspecified) | inconclusive [inhibitor, single point] | 
35 | Cc1ccc2cc(/C=N/Nc3ccc(C(=O)O)cc3)c(Cl)nc2c1 | inconclusive [inhibitor, partial curve] | 
36 | CCC(=O)Nc1nc2ccc3nc(C)sc3c2s1 | inconclusive [activator, full curve] | 
37 | COc1ccc(CNc2oc(-c3cccc4ccccc34)nc2C#N)cc1 |  | inactive: -4.25%
38 | Cc1nc2sccn2c1-c1csc(NCc2ccccc2)n1 | active: 1 µM | 
39 | Cc1ccc(S(=O)(=O)c2nnn3c2nc(N2CCCCC2)c2ccccc23)cc1 |  | inactive: -11.9%
40 | CC(=N\NC(=O)c1cc(Br)ccc1O)/C(=N/O)C(=O)Nc1ccccc1 | active: 11.2 µM | 
41 | Cc1ccc(-c2[nH]nc(N)c2N=Nc2cccc(Cl)c2C)cc1 | inconclusive [inhibitor, single point] | 
42 | CCCOc1cccc(C(=O)NC(=S)Nc2ccccc2)c1 | inconclusive [inhibitor, single point] | 
43 | CC(C)(C)C1CCc2c(sc(NC(=O)CSc3ncn[nH]3)c2C#N)C1 (stereo unspecified) | active: 11.2 µM | 
44 | Cc1cccc(-c2cc3nc(C)cc(NCCCn4ccnc4)n3n2)c1 |  | inactive: 12.2%
45 | COc1cccc(/C=N/NC(=O)CSc2cccc3cccnc23)c1 | inconclusive [inhibitor, partial curve] | 
46 | Cc1ncsc1CCOC(=O)c1ccc(N2CCOCC2)c([N+](=O)[O-])c1 | active: 3.98 µM | 
